Reference: the supplement of paper PMC3334620
The full ranking holds about 33,000 sequences; the median of “E-score (-0.5 to 0.5)” is about -0.032, and the highest 2% start at about 0.36. The list shows a part of the results.

molecular target: T1, Sko1 (UniProt Q02100); assay: PBM E-score (8-mer binding enrichment) (E-score (-0.5 to 0.5)); higher = stronger / more preferred TF binding; most listed sequences are background and not binding sites; details: protein concentration: 200 nM; construct: GST-full length
T1 sequence: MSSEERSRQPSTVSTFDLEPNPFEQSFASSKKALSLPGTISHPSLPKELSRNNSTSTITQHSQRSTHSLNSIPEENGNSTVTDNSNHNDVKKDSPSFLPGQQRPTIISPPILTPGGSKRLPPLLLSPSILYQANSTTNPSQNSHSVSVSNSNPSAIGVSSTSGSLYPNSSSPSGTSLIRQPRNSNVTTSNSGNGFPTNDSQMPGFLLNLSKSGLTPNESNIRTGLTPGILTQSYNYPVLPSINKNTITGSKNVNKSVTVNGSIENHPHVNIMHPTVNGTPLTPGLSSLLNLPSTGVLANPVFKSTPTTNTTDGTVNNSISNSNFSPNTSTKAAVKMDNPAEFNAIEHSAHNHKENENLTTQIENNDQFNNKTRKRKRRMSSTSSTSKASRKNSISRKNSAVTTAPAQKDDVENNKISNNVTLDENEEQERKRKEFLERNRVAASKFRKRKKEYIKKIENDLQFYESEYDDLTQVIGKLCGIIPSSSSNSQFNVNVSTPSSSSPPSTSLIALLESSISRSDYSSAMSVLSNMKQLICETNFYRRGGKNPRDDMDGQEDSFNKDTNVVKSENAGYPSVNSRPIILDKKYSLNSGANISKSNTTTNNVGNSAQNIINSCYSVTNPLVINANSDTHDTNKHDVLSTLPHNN
In short: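 PURExpress in vitro transcription/translation supplied GST-tagged yeast transcription factors, either full-length or DNA-binding domain. Applied at about 100-200 nM to universal all-10-mer Agilent arrays double-stranded by primer extension, the bound protein was detected with fluorescent anti-GST. E-scores, modified Wilcoxon-Mann-Whitney statistics, were given by the Universal PBM Analysis Suite to ungapped eight-base words pooled with their reverse complements after masliner normalisation.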

Sequence	PBM E-score
AGGTAACA	0.127
GAATGAAC	0.142
GCAATCCC	-0.0317
AAGCAGCG	-0.0423
ACAGTCGA	-0.154
CTGTTCTC	-0.106
CGCGAACC	-0.0595
ATTCCTGC	0.0663
AAGTTTTC	0.107
CGACAAAG	0.0583
CAAATCTA	0.0876
GAGTCTCC	-0.211
CCCTCGGC	-0.273
GCAAACAC	0.137
AAAGTCCT	-0.124
ACGCAAAG	0.276
GTGTCTAA	0.065
ACGACTTG	-0.058
GTCCTATA	-0.0251
CATGAAGA	0.0179
AAGGGAGT	-0.101
AACGTGGA	0.237
CGACGATA	0.0441
AAATGCAA	0.0414
AGACGAAG	-0.101

Sequence	PBM E-score
AGTTCTGA	0.102
CGCGTATC	0.232
AGGTAATC	0.163
ATTCCGGG	-0.266
ATAAGACA	0.183
TGGGAACA	-0.247
CAACTTCA	0.127
AAAGGGCA	-0.146
CTGCTTAC	0.0487
AGCCCACG	0.209
ACAACAGC	0.00163
ATCAATCC	0.125
AAATATTA	0.295
ACGAGGTA	-0.0524
CCGTCGAA	-0.0246
CCCCATAG	-0.244
GTGGACAC	-0.0425
CCGATTGC	0.0694
CATATTTC	0.12
CGTTCCCA	-0.0769
CAACAATG	0.0609
ATAGTCCA	-0.117
AGCATCAG	-0.181
CTTGAAAG	-0.0877
CTATAGGC	-0.178

Sequence	PBM E-score
GCGCGAGC	-0.167
CCACCGAG	-0.351
ACTTGTAT	0.0674
GGGCAACC	-0.211
ACACTATG	0.00221
AGCTCAAG	-0.186
CCGCAAAC	-0.0896
TACCCAAA	-0.0306
GGGGTGAC	-0.0461
CTGAGTTC	-0.0185
CTCACTCC	-0.0365
GCACGCGA	0.114
CTAAGTCC	-0.254
CCCTGGAA	-0.367
AGCACGGA	-0.221
CGTTGTCC	0.187
ACACACCC	-0.0953
TGGATAAA	0.00546
ACGTATCC	0.389
CCCGGGAC	-0.359
TCACAAAA	0.156
CTTGTGTC	-0.0889
TCCATAGA	-0.173
GTACACTA	0.0293
CCTGCCGA	-0.329

Sequence	PBM E-score
CTATGGCC	-0.29
CCCGAGGC	-0.315
ATGCCAAG	-0.0588
CCAACTCG	0.076
ACGGGTTA	-0.137
TAGTGTGA	0.116
AGTCGCGA	0.0367
AGCTATCC	-0.323
CTACACGC	-0.00687
ACAAATGG	0.0773
CTGTACTA	0.111
AAGTTACA	-0.0102
CACATGGC	0.0845
GATTAAAA	0.202
AGAAGACC	-0.096
AGGTTCAT	-0.265
CGTAACTC	0.331
CCGCGTGC	-0.0654
CATACCAC	0.0883
AACATTCA	-0.148
GGCGGCCC	-0.352
CCATTAGG	-0.161
GTCGTTGA	0.158
CGAACGAG	-0.0222
CGAGAGAG	-0.198

Sequence	PBM E-score
AATACGAC	0.22
AGCGGCTC	-0.202
AATCTGGA	-0.0269
CCGGATAC	-0.0842
AATACATC	0.249
GGCCATAA	-0.168
ACTTACTA	0.0335
ATACCCCA	-0.0418
CTTTCTAA	0.149
AAATCCCT	-0.139
ACCCCACC	0.132
CAAGATCA	-0.117
AGGATCAA	-0.0197
ATAATCTG	0.0638
CGACTCAG	-0.199
GCAAGGTA	0.0147
CCTATGAA	-0.0551
GGATACAA	-0.0221
CAGCCCCA	-0.217
AGACATTA	-0.0173
GAGTCTCA	-0.343
TGGGGACA	-0.0788
CAAAGGCG	-0.0438
ATTGTGAA	0.085
CGGACCGA	-0.16

Sequence	PBM E-score
CCTTAAAC	-0.105
ACCTCGAG	0.0402
ACCTCACA	-0.0109
CACCGCGG	-0.204
CATTATTA	0.136
AAGTAGGG	-0.0549
CAACCTAC	-0.0224
AACTGGGC	-0.351
AGGGCCGG	-0.274
AACTTTTC	0.115
GGGACGCA	0.0981
AACATCCC	-0.232
CAGTATTA	0.146
ACGAGAAT	0.143
CGCACTAG	-0.0989
CTATCCCC	-0.337
AATTGACC	-0.0283
CAGGACGA	-0.116
AGGTTCCC	-0.237
CGCTCTAG	-0.348
AAACTGCA	-0.203
ACCGGAAG	0.00439
AGAGCTAT	-0.0901
GTCTACAC	-0.0279
CCTACTGC	-0.144

Sequence	PBM E-score
CATCCCTA	-0.124
AACTAACA	0.124
GTCAGTAA	0.207
AATATCCG	0.0774
AGTAACCA	0.0123
AACCACTC	-0.126
AAGCATCT	-0.118
CGAGCGAC	-0.026
CCCTATCA	-0.257
ACAATTGT	-0.0275
ACCTATGA	0.183
CCCCTCAA	-0.133
GGGCTTAC	-0.129
AAGGTGTG	-0.121
CTACGTCC	0.298
GTACCCCA	-0.19
ACAGGGCT	-0.13
ACATTACC	0.146
ATTTAAGA	0.0259
ACGTAGCC	0.388
ATTAGCCA	-0.0892
GTCTATCA	0.0459
CCGGGGAC	-0.315
ACATGATA	0.208
ACCTCGAA	-0.0344

Sequence	PBM E-score
ACAGGAAA	0.0847
GCTGTTCA	-0.00445
ACAGAATA	0.182
GAATACAC	0.1
TAGGACAA	0.0529
GCAAGTGA	0.0674
AGGTTACA	-0.00703
CCCGTGGC	-0.396
AATCCAAA	0.0986
GCCACCTA	-0.0329
CATGGGCA	-0.229
GTGCAGCA	-0.167
AATTCACG	0.095
CCAAGTGC	-0.285
GACCCGGA	-0.245
GACATGGC	-0.103
CATACCCG	-0.0961
ACACGCCC	-0.102
GGAATCAA	-0.0965
GAGTACAA	0.0814
ATAGTGAA	0.0345
CGGACAAC	-0.0111
CCCGAGCA	-0.19
AATAATGT	0.08
CACATGAC	0.257

Sequence	PBM E-score
CGAACGGA	-0.0822
ACAAACAT	0.0999
AAAAGCTG	-0.0655
CCAGAGTC	-0.108
GTAACGCA	0.217
ATGTCTTA	0.245
CCAGCTAA	-0.162
ACACGGGT	-0.189
ATTCAGTA	0.196
ACCTACAC	-0.0871
GACCGGCA	-0.313
GTGATGAA	0.111
TCCCAAGA	-0.166
GTAATGCA	0.286
AGCGGTGC	-0.249
GATATTAC	0.34
CGCGTTTC	-0.131
CATGCAGA	-0.0258
AATCGTAT	0.265
AGCGGCAC	-0.207
CTAGGCTA	-0.362
AGGTGTAG	-0.179
AAATATTC	0.149
GGGTAACC	-0.0845
CGAGTAAA	0.0446

Sequence	PBM E-score
AAATAGAA	-0.0185
GTCTGGGA	-0.133
CCCTTGGC	-0.379
GGCACTAC	-0.0301
CGATTTAG	0.0946
GCGCTAAA	0.0272
GTTCGTTA	0.107
AAGTCGGT	-0.229
CGGTTGAG	0.051
ACTATTCC	0.05
ATGTGCGG	-0.0523
GGTACTGA	-0.0674
GAGTCGCC	-0.275
ACCTTGCC	-0.132
ACGCCAAC	0.193
GGCCGAGA	-0.215
TGCTGGAA	-0.137
GGCGTTGA	-0.116
CAACACAG	-0.108
GTTACTGA	0.173
AACGCGTA	0.287
AGAACACG	0.116
ATAAACAA	0.198
CTCATGAA	0.187
AGTTTGTG	-0.246

Sequence	PBM E-score
CAGGGGCA	-0.00747
CTCCTTCA	-0.267
AGGGATAT	-0.142
GTCAAACA	0.183
CCCATGGC	-0.236
GCGTAACA	0.317
AATTTGCA	-0.0162
CCGTATCC	-0.133
CATGTGCC	0.045
ATCCACGG	-0.0775
GTCCCGTA	-0.168
CACACTAC	0.0507
AATTTAAC	0.159
GTAGCATA	0.152
TTAAAAAA	0.238
GTAAGGAA	0.103
CGAGCGAG	0.157
CGTAATAC	0.451
CCGCTGGA	-0.296
ACCCCGTG	-0.221
ATTATTCG	0.216
CTAATAAG	0.193
ACCTGCAT	-0.13
ATCCTCAT	-0.111
GGTCCGCA	-0.14

Sequence	PBM E-score
AGGCAGTC	-0.183
CCTTCTCC	-0.396
CCAACGTC	0.236
CGACACGA	0.0391
AACGAAGC	-0.0636
CTCAATTA	0.0785
ACTAGCAT	-0.0799
CAGACGGA	-0.205
ACATATTC	0.232
AAACCTGT	0.035
AAGGCATG	0.0622
AGGCGTAA	0.206
CGCATACC	0.0198
AAAGTTTC	0.081
GAGTCGCA	-0.248
GGCAATGA	0.15
CAGGTGAG	-0.297
GGCCCCAC	-0.124
CTGACTTC	-0.0329
CACGCTGG	-0.0502
CAAGTACA	0.057
CATCAGGG	-0.0575
AGCAACCG	-0.124
AATCGGCC	-0.316
CCGATCCA	0.0535

Sequence	PBM E-score
AACGGGCT	-0.192
GGTGATTA	0.164
ACCCTCCA	-0.325
AACTTGCG	0.184
ATCAGACA	-0.0138
CTAGTTAC	0.099
GTACATTA	0.295
AAGGATTA	-0.0223
AGGTTGAC	-0.0293
AGAGATTA	0.0827
ACCCGACG	0.00176
ACTAACCA	-0.0259
GCGCCTAA	-0.0613
CATAGGAG	0.00533
CACCGAAA	0.0711
CTCACAGC	-0.0866
ATCTGCGG	-0.0643
ACCAATTG	-0.0372
AGAACCGG	-0.316
ACGCCTCC	-0.151
ATCCCCAG	-0.163
AAATCCTA	0.17
ACTGAAGA	0.0507
AGGGGGAG	-0.356
AGCCGTTG	-0.143

Sequence	PBM E-score
CCCGGCGC	-0.279
CCGTTGCC	-0.373
ATCTGAAT	0.0469
ACAGGGAG	-0.225
GGCTGTCA	-0.243
CCGAACTC	-0.125
AGTGCAGG	-0.123
AGATACCA	-0.0643
CCATGTAA	0.0164
ACTCTCAT	0.0617
AGCGGAAA	-0.0595
ATACCTTA	-0.0338
TAAGGCAA	0.063
AGTGTTAG	0.0857
TCAGGCCA	-0.147
CCACGGCA	-0.214
AGTCATTG	0.0177
CTCCAGGC	-0.167
CTTGCGGC	-0.209
